This test relates to flore ruménale. The test is described as follows: in vitro rumen flora fermentation, nitrogen use.

Consider `COC1CC(CC(O)CCC(C)C=C(C)C(=O)O)OC2(OC(C)(C3CCC(C)(C4OC(C5OC(O)(CO)C(C)CC5C)CC4C)O3)CC2C)C1C` (centres unmarked) [abiérixine], for which the “effets sur l'activité microbienne ou sur la production de gaz à partir d'azote protéique” value is “absence d'effets négatifs” and the “quantité d'azote ammoniacal fixée par les bactéries (synthèse microbienne)” value is listed as “ne diminue pas significativement”.

The values above are taken from patent EP0179751B1, “Ionophore polyether, process for its preparation and its use” (SANOFI, priority 1984, dated 1986).
